Results on 83 variants are retold here after the RNAGym collection of RNA variant scans (doi:10.7554/elife.90254).

Read counts are not given, so values of variants with three or more changes are uncertain.

To fix the notation:
B1: OR4K15 (parent)
chain: GUUAACGGUCAUAGGCCAUGGAAACUAGGAGCACCAUUUCGCUGCCAGUGAAGAAAUGAACAAAGAAAAUCUGGGCCAGGCAGGCAUCAAAAGAAAUAGUCUUGCGCUCAACCAGAAAGUCUGUAAUCAUUUUAAGGGUA

In this data set the parent is B1. Kind of data set: self-cleavage, relative activity (ratio to wild type); higher = more cleavage; in vitro, sequencing; the parent is a self-cleaving ribozyme.
On to A18G A36U A69G A116G, for which the self-cleavage is 0.23.

A18G A23G A90G: the self-cleavage was 0.28.

With A18G U49C A95G, the self-cleavage stood at 1.68.

For the variant U19A A47U U49C A86G A92U, the self-cleavage was 0.81.

Regarding U19A A60G C76U U102C A110G, the self-cleavage was determined as 0.06.

Take A18U G74A A91G A98U U108C A110G: the self-cleavage was found to be 0.01.

Consider A18U A52G A94U C107A A140U, for which the self-cleavage is 0.02.

In the case of A18G A96U A129U, the self-cleavage stood at 0.94.

Regarding A18U A30G A62G, the self-cleavage was 0.81.

On to A18U A27G A52G A86U A91G U127C, for which the self-cleavage stood at 0.59.

As for U19A A22U U43A U49A A67G, the self-cleavage was 0.68.

Regarding A18U A56G A82C A91G, the self-cleavage is 0.13.

On to A18G A36G U70C, for which the self-cleavage is 0.64.

Regarding U19A U37C A66G A67G, the self-cleavage was 1.49.

In the case of A18U A30U A67G U102C U124C U127C, the self-cleavage worked out at 1.24.

With A18C U38C U124C, the self-cleavage stood at 1.26.

With U19A A78G A125G, the self-cleavage was 0.04.

For A18G G29C A30U U38C, the self-cleavage was 1.27.

For A18C A52G U70C A95G U103A, the self-cleavage was found to be 0.1.

On to A18U U19A A22G A91U U131C, for which the self-cleavage turned out to be 0.45.

As to A18G A59G U102C C105U A111G U122C, the self-cleavage is 0.01.

Consider A18G A47U A62C A90G A135U, for which the self-cleavage amounted to 0.51.

Regarding A18U A54G A95G A117G, the self-cleavage was found to be 2.7.

Consider A18G U26C U102A G138A, for which the self-cleavage turned out to be 1.88.

As for A18G U19C U49A, the self-cleavage amounted to 0.78.

Consider U19A U70A A111G A117G, for which the self-cleavage was 0.02.

Regarding A18G A67G A78G A86G, the self-cleavage stood at 0.36.

In the case of U19C A24G A110G, the self-cleavage turned out to be 0.05.

Take A18U U87C A96U: the self-cleavage amounted to 1.12.

For the variant A18G A60U U97A, the self-cleavage was 2.18.

Consider A18G G75A A91G U131C, for which the self-cleavage amounted to 0.14.

For the variant U19C A22G A51U A67G A69U U124G U131G, the self-cleavage was determined as 0.9.

A18G U39A A69G A82G A117U U133G: the self-cleavage came to 0.91.

For the variant U19C A33G A47G, the self-cleavage is 0.64.

For the variant A18G A51C A82G A90G A111G A126G, the self-cleavage came out at 0.02.

As for A18G U38C C46U U57A, the self-cleavage came to 1.53.

On to A18U A56C A66G, for which the self-cleavage stood at 1.34.

A18G U37A A129U: the self-cleavage came to 0.48.

Take U19C A27G A47U A51G A78G U103C: the self-cleavage worked out at 0.33.

U19A A30G A51G U132C: the self-cleavage was 1.45.

Take A18U A24G A33G U87C U97A: the self-cleavage was found to be 1.33.

Take A18U U26C A33G U39C A78G: the self-cleavage was 0.19.

Regarding A18G A60U U132C, the self-cleavage was 2.15.

As for U19C A23G A24G U122C, the self-cleavage stood at 0.47.

As for A18G A68G A96G U102A, the self-cleavage was determined as 0.82.

In the case of A18U A55G A82G U87C U122C, the self-cleavage came out at 0.11.

In the case of A18U A36U A94G, the self-cleavage was 1.01.

Take A18U A22G A51G U122C: the self-cleavage is 0.92.

As for A18C U87C U133A, the self-cleavage worked out at 1.41.

As for A18G A60G A62G A98G A110G U122C, the self-cleavage was determined as 0.09.

For A18U U72C U97C U124A, the self-cleavage was 0.05.

Regarding U19C A22G U49C A67G, the self-cleavage worked out at 0.89.

Take A18G A68G U132C U139C: the self-cleavage is 1.55.

As for U19A A30G A91G U102C U108C, the self-cleavage came out at 0.05.

As for A18G U49A A54G A82G A110G A111G U122A, the self-cleavage was 0.04.

Consider U19C A22G A60U A62G, for which the self-cleavage came to 0.6.

With A18U A66G A111U C112U, the self-cleavage turned out to be 0.01.

Turning to A18G U49C A90G, the self-cleavage is 0.99.

As to A18G C42U A59C, the self-cleavage is 0.98.

As for A18C A62U A82G U131C, the self-cleavage was determined as 0.14.

On to A18G U70C A91G A95G, for which the self-cleavage was 0.18.

For the variant U19A U57C A69G, the self-cleavage turned out to be 0.8.

On to A18G U57C A92G G137U, for which the self-cleavage is 0.35.

Regarding A18G A52G A66G A126G, the self-cleavage came to 1.14.

For the variant U19A A66G A68G, the self-cleavage worked out at 0.74.

Consider A18G U70A U87C A118U A125G, for which the self-cleavage is 0.23.

Consider A18U A33G U43A A78G A86G A118U A126G, for which the self-cleavage was determined as 0.04.

With A18G A63G C105U G136A, the self-cleavage came to 0.29.

Turning to A18C A54G A62C A91G, the self-cleavage was 1.02.

Consider A18G A62G G79A A96G C113U U132C, for which the self-cleavage is 0.01.

For the variant A18U U39C A67G, the self-cleavage turned out to be 0.56.

In the case of A18G A22G U38C A47U A82G, the self-cleavage is 0.86.

In the case of U19C A24U C46U, the self-cleavage was 1.39.

A18G U130A U131C: the self-cleavage worked out at 0.52.

For U19A A55G A91G A125U, the self-cleavage worked out at 0.5.

Consider A18U A33G A118G U120C U127C, for which the self-cleavage came out at 0.02.

As to U19C A23G C32U, the self-cleavage is 0.53.

In the case of U19A A92G A116G, the self-cleavage turned out to be 0.31.

For the variant A18G U103C U131A U139A, the self-cleavage was 0.74.

As for A18G A54U A90G A135U, the self-cleavage is 0.68.

As to A18U U70C A92G A117G, the self-cleavage came to 0.7.

For A18G U19C U72C A94G U127C, the self-cleavage amounted to 0.09.

A18G U57C A60G: the self-cleavage worked out at 1.55.
